# Structures can show the parent of a compound that is named as a salt. ± gives the standard deviation of the averaged measurements. The full ranking holds about 2,600 compounds; the median of “total cell number (DAPI+ nuclei) relative to DMSO vehicle control” is about -1.4, and the lowest 2% start at about -23. The list shows a part of the results.
# Test system: jimpy (Plp1 jimpy) mouse iPSC-derived oligodendrocyte progenitor cells
# Experiment: total cell number (DAPI+ nuclei) relative to DMSO vehicle control (SDs above negative control mean); higher = more surviving cells
# Conditions: 10 µM; 3 days
row,Structure (SMILES),total cell number
1,Cc1ccc(S(=O)(=O)NC(=O)NN2CC3CCCC3C2)cc1 (stereo not given) [Gliclazide],0.277
2,Cc1cc(Cn2cnc3c2CC(C(=O)O)N(C(=O)C(c2ccccc2)c2ccccc2)C3)ccc1N(C)C (stereo not given),-1.76
3,O=c1c(O)c(-c2cc(O)c(O)c(O)c2)oc2cc(O)cc(O)c12 [Myricetin],-1.15 ± 0.82
4,N#CC(C#N)=C(N)/C(C#N)=C/c1ccc(O)cc1 [Tyrphostin AG 112],-0.733
5,COc1cc2nc(N3CCN(C(=O)c4ccco4)CC3)nc(N)c2cc1OC [Prazosin hydrochloride],-10.2
6,COc1cc2nc(N3CCN(C(=O)c4ccco4)CC3)nc(N)c2cc1OC [Prazosin HCl],-22.3
7,NCCS(=O)(=O)O [Taurine],-0.885
8,O=C(Nc1cc(C(F)(F)F)ccc1N1CCCCC1)c1ccncc1,-0.285
9,CCCCS(=O)(=O)N[C@@H](Cc1ccc(OCCCCC2CCNCC2)cc1)C(=O)O [Tirofiban hydrochloride monohydrate],-0.885
10,COc1nc(C)nc(Cl)c1NC1=NCCN1 [Moxonidine hydrochloride],-0.533
11,COc1nc(C)nc(Cl)c1NC1=NCCN1 [Moxonidine],-0.152
12,Cc1ccc(NC(=O)c2ccc(CN3CCN(C)CC3)cc2)cc1Nc1nc(-c2cccnc2)cs1 [Masitinib (AB1010)],-14
13,N=C(N)NC(=N)N1CCOCC1 [Moroxydine HCl],-1.19
14,CC(C)(C#N)c1ccc(N2C(=O)OCc3cnc4ccc(-c5cnc6ccccc6c5)cc4c32)cc1,-9.24
15,CCN(CC)Cc1ccc2cc(COC(=O)Nc3ccc(C(=O)NO)cc3)ccc2c1 [Givinostat (ITF2357)],-11.3
16,CC(=O)Oc1cccc2c1C(=O)c1c(OC(C)=O)cc(C(=O)O)cc1C2=O [Diacerein],1.39
17,CC(C)C[C@@H](C=O)NC(=O)[C@H](CC(C)C)NC(=O)[C@H](CC(C)C)NC(=O)OCc1ccccc1,-9.47
18,"O=c1oc(Cl)c(Cl)c2ccccc12 [3,4-Dichloroisocoumarin]",-0.221
19,COC1=CC(c2cc3ccccc3[nH]2)=N/C1=C\c1[nH]c(C)cc1C [Obatoclax Mesylate (GX15-070)],-27.6
20,CN(C)CCc1c[nH]c2ccc(Cn3cncn3)cc12 [Rizatriptan benzoate salt],0.0549

row,Structure (SMILES),total cell number
1,CN(C)CCc1c[nH]c2ccc(Cn3cncn3)cc12 [Rizatriptan Benzoate],-2.26
2,OCCN1CCN(CCCN2c3ccccc3Sc3ccc(Cl)cc32)CC1 [Perphenazine],-8.9
3,OC[C@H]1O[C@@H](Oc2ccc(O)cc2)[C@H](O)[C@@H](O)[C@@H]1O [Arbutin],-1.48
4,O=C(c1ccc(C(=O)N2CCC(N3CCCC3)CC2)c(Nc2ccccc2)c1)N1CCC(N2CCCC2)CC1,-1.12
5,"NCCCCCCCCCCN [1,10-Diaminodecane]",-0.604
6,COc1ccc(NS(=O)(=O)c2ccc(N)cc2)nn1 [Sulfamethoxypyridazine],0.904
7,Nc1ccc(C(=O)NCC(=O)O)cc1 [4-Aminohippuric Acid],0.763
8,CCCC(=O)O[C@]1(C(=O)COC(C)=O)CC[C@H]2[C@@H]3C[C@H](F)C4=CC(=O)C=C[C@]4(C)[C@@]3(F)[C@@H](O)C[C@@]21C [Difluprednate],4.34
9,CN(NC(=O)CC(=O)NN(C)C(=S)c1ccccc1)C(=S)c1ccccc1 [Elesclomol (STA-4783)],-1.04
10,CO[C@@H]1[C@@H](OC(N)=O)[C@@H](O)[C@H](Oc2ccc3c(O)c(NC(=O)c4ccc(O)c(CC=C(C)C)c4)c(=O)oc3c2C)OC1(C)C [Novobiocin Sodium],-0.427
11,CCN1CCN(C(=O)N[C@@H](C(=O)N[C@@H]2C(=O)N3[C@@H]2SC(C)(C)[C@@H]3C(=O)O)c2ccccc2)C(=O)C1=O [Piperacillin Sodium],-1.22
12,CN(C)CCC[C@@]1(c2ccc(F)cc2)OCc2cc(C#N)ccc21 [Escitalopram Oxalate],1.42
13,CC1=CC(=O)NS(=O)(=O)O1 [Acesulfame Potassium],0.0291
14,CN1CCCC(n2nc(Cc3ccc(Cl)cc3)c3ccccc3c2=O)CC1 (stereo not given) [Azelastine HCl],-6.76
15,COc1cc(OC)c(C=C2C(=O)Nc3ccccc32)c(OC)c1,-4.15
16,NC(=O)N/N=C/c1ccc([N+](=O)[O-])o1 [Nitrofural],-3.72
17,O=C(O[C@H]1CN2CCC1CC2)N1CCc2ccccc2[C@@H]1c1ccccc1 [Solifenacin succinate],-6.26
18,O=S(=O)(c1ccccc1)c1cnc2c(N3CCNCC3)cccc2c1,-1.24
19,COc1ccc(C2(CNC(=O)c3ccc(NC(=O)c4ccco4)cc3)CCOCC2)cc1,-6.22
20,CC(C)C[C@H](NC(=O)[C@H](CCc1ccccc1)NC(=O)CN1CCOCC1)C(=O)N[C@@H](Cc1ccccc1)C(=O)N[C@@H](CC(C)C)C(=O)[C@@]1(C)CO1 [Carfilzomib (PR-171)],-11.3

# Source: the supplement of paper PMC6135742
